Data published in the supplement of paper PMC11417369.
± gives the standard deviation of the averaged measurements. Some of the results follow.

These sequences were tested on PfAP2-LT AP2 domain (GST-tagged) (assay: gcPBM binding intensity (ln(normalized median fluorescence intensity)); higher = stronger DNA binding).
Outline: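 GST-tagged P. falciparum DNA-binding domains, expressed in E. coli (about 25 μg on average), were applied for 1 h to an Agilent 4 × 180k array of primer-extended double-stranded 36-bp intergenic genomic probes plus negative controls. The binding buffer was 1× PBS with 1% milk, 0.2 mg/ml BSA, 0.5% salmon testes DNA and 0.03% Triton X-100. Bound protein was detected with Alexa488 anti-GST antibody and scanned at 488 nm. Binding intensity is the highest Masliner-normalised natural-log median intensity across replicate spots of either probe orientation.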

Sequence	gcPBM binding intensity (ln)
AAAATCAAAAAAACAAGTACAAATGTGGACTTTTTT [XGTACX_site5363]	8.75 ± 0.45
TGTTCTATGGTTTGTAGTACTTTAATAAATATAAAT [XGTACX_site7823]	8.56 ± 0.4
TGACCTGTTCAGGTAACACACATATAAACCCATACA [CACACA_site31]	9.11 ± 0.35
ATGCTATAGGATCTTACACACATTTTTGTAAAAAAA [CACACA_site1868]	8.79 ± 0.35
TTTTTTTTTTTTTGGTGTACCATAGGTAAAATGATT [XGTACX_site8020]	8.43 ± 0.37
ATTTATGGAAAAAGAACACACAATCAAACAAAAATA [CACACA_site3707]	9.03 ± 0.47
ATATAAATGAATATATGTACATATATATATATATAT [XGTACX_site6361]	9.71 ± 0.44
GAAAAAAAAATATCTTGTACTTACATAACTATTGGT [XGTACX_site5326]	8.63 ± 0.44
TAAATTAAAAAACATAAACTATTGGAAACGCATTGA [CACACA_negctrl_site935]	8.72 ± 0.43
AAAGGTTTATCTGATACACACATAAGTGATCAGGTT [CACACA_site6233]	8.83 ± 0.33
TATACATATGTATGCACACATACATACCCATATAAT [CACACA_site5842]	9.12 ± 0.33
CTATATATAAAATATTGTACTTATTTTTATTACATC [XGTACX_site3963]	8.72 ± 0.35
TTTTCTCAATTTTGGTGTACTTTTTTCTTAACACAT [XGTACX_site8918]	8.94 ± 0.35
TATTTAAAATATTAAATTTGTAAAGTTCGAGGGAAG [GTGCAC_negctrl_site337]	8.32 ± 0.38
ACACAATAAACATTATGTACATATAATGTTCTGTGT [XGTACX_site3381]	9.03 ± 0.45
AATGATAATCTATTATGTACACATATATTCTTATGT [XGTACX_site4148]	9.02 ± 0.53
CACAGTGATATAAAAACACACATGAATTAAAATTTC [CACACA_site4999]	8.99 ± 0.47
TATTTTTATCAATTCACACATAAATATATTTATATG [CACACA_site5547]	8.64 ± 0.46
CATACATACAGACACACACACATATTTATATTTATA [CACACA_site6172]	9.9 ± 0.41
TCCCTTAATTTTGTGTGTACATATAATATATTTTTA [XGTACX_site2789]	9.11 ± 0.47
GTTAATTATTAAATTTGTACTCATATATATTATATA [XGTACX_site6862]	8.71 ± 0.53
AAGAACTCATTAATAATGTAATATTTTATAATTTAG [CACACA_negctrl_site321]	8.34 ± 0.48
ATTCATAAATATATTTGTACATATTATATATAAATA [XGTACX_site1907]	8.5 ± 0.44

Sequence	gcPBM binding intensity (ln)
ATAATAAAACTCAAAGTGCATTAGAATAATTGTAAA	8.7 ± 0.47
AGCACCCACCAACACACACACACACCCACCCACCCA [CACACA_site8011]	10.3 ± 0.11
TAATATATAACGTGCACACACACATTTACGTATGAA [CACACA_site1832]	9.48 ± 0.28
ACAATAAATATGTGGTTGCACTTATAATATATTTAT	8.74 ± 0.38
TATACATATTTCTATTGTACATAAACTAAATCTTCA [XGTACX_site28]	8.46 ± 0.35
TTTTTATAATAAAAAAATATAACTATATTAAGCCAC [CACACA_negctrl_site555]	8.4 ± 0.39
TACAATTGTAAAGGCGCACACATATATATATATATA [CACACA_site1392]	10.3 ± 0.23
GATATTATTGCATATTTACACACGTACTAATTTAAA [CACACA_site8231]	9.14 ± 0.4
TTTAATAAAATTCTAGTGCAAAAAGGAAAAAACAAA [GTGCAC_site9642]	8.57 ± 0.42
AATATATAGGAAAAAGTGCAATAAATGAACAAAATA	9.02 ± 0.46
AAAAGAAATGACAAATTGGATAGATAATAGGGGGTA [GTGCAC_negctrl_site262]	9.12 ± 0.092
AATTTTGATATATATTGTACGCATTTTTAAATGCCA [XGTACX_site7694]	8.79 ± 0.4
TTATTTACTTATTGCACACATATAAAATATATTTAT [CACACA_site3101]	8.98 ± 0.39
TTCTTAATTTAAAATTGTACTTAAGTAATACTTATG [XGTACX_site3928]	8.49 ± 0.57
GAAGTTTTTTAAAGATGTACTTTTTAAAAATAATGT [XGTACX_site1975]	8.31 ± 0.45
AAAAAAAAAAAAAATACACACATATATAAATAAATA [CACACA_site6459]	8.96 ± 0.47
GGAATAGTGATATATACACACAAATACATATTTATA [CACACA_site6183]	9.18 ± 0.35
AATTAATAAGAAAGGTGTACAGAAAAAAAAAAATAT [XGTACX_site2106]	8.91 ± 0.57
GAAAAAAGAAATTTATGTACATACATATATATATAT [XGTACX_site7888]	9.07 ± 0.33
ATATGTAAAATATGGGGTACGAAGGTAGGTAGGTAA [XGTACX_site1392]	9.37 ± 0.52
ATAAAGCCATACAATACACACATTTTACATGTCGGT [CACACA_site3265]	9.23 ± 0.46
ATTCTATATGTTACATAAACCTATATTTTTTTTTTT [CACACA_negctrl_site860]	8.63 ± 0.56
TAAGCCACCATATTTACACACACATCAAAATGTATT [CACACA_site1815]	9.36 ± 0.36

Sequence	gcPBM binding intensity (ln)
TAAATAATATAATTATGTACGTATTTCTTTATTTTA [XGTACX_site8410]	8.61 ± 0.42
GCTGAAAATAAATGAAGTACACAAGTAATATATATA [XGTACX_site6205]	9.05 ± 0.5
TATATATATATATATACATGCATCATTGTTCACCTT [TGCATGCA_site177]	10.2 ± 0.35
TAATATTGACTATATACACACATATAAATATAAATA [CACACA_site6414]	8.91 ± 0.33
AAAAAAAAAAAAAAAAGTACATATGCTCAAGAGATG [XGTACX_site3783]	8.68 ± 0.45
TTTTTTTTTTAATTAACACACATAAATATAAATATA [CACACA_site7527]	8.41 ± 0.42
CATTCAAAGAAAAACAGTACGTGTAGCAAAAGGCCT [XGTACX_site266]	9.05 ± 0.38
AATGGGATCATGGTATGTACTTACACAAATGAATTA [XGTACX_site5389]	8.76 ± 0.55
TTGTATTTACTATACACACACATACATACATACATA [CACACA_site4603]	9.45 ± 0.31
TGAATAAAATATTATACACACATATGTATTTAACAT [CACACA_site4694]	8.91 ± 0.35
ATCATTTAAACAATATGTACTCATTGTAGATATGGT [XGTACX_site5088]	8.77 ± 0.36
AATGCGCATTTTTTTTTTTTTTTTTTTTTTTTTTTT [XGTACX_negctrl_site258]	9.09 ± 0.085
ATATATATATATATGTGTACATATTAGTGATATAAT [XGTACX_site7161]	9.35 ± 0.028
CGTTACACAAAAATATGTACATATATACATATATAT [XGTACX_site4631]	8.92 ± 0.48
TATAAATATAAATACTGTACATTATATTATATAATA [XGTACX_site2480]	8.53 ± 0.43
TATTCCCCCAAACACACACACACACCCACATACCAC [CACACA_site2304]	10.5 ± 0.13
TAAAAATAATATTAATGTACATTACATATTAATATA [XGTACX_site1019]	8.43 ± 0.46
TATACGTGTTTTATTTGTACTTAAGCAGGTAAGCAT [XGTACX_site193]	8.62 ± 0.36
CTATATATTTTTTCTTAACACACATATATAAAATAA [CACACA_site9165]	8.45 ± 0.35
TATATGTATCCATTATGTACATAATAGTAATATAAT [XGTACX_site4008]	8.82 ± 0.38
TATATTTATTTTCTGTGTACACATATGTTGTGTATT [XGTACX_site7640]	9.28 ± 0.49
AAAACCTAGTGCATTTGTACATATTTCAATTTTAAA [XGTACX_site4582]	8.59 ± 0.49
TAAAAAATACAAGAGTGTACAAAATTTTTCTAAATG [XGTACX_site5334]	8.8 ± 0.49

Sequence	gcPBM binding intensity (ln)
AATATAAATGTGATTACACACAACAGATTTAAATGG [CACACA_site4802]	9.12 ± 0.45
TTATTTTTTAATTATATTCAAAATTAAAAAAAAAAA [XGTACX_negctrl_site226]	7.79 ± 0.33
ATTAAAAAAAAAAAAAAAAAAAAAAAAAAAAAAAAA [CACACA_negctrl_site1060]	8.02 ± 0.17
ATTGATAAATTAACTAGTACACATATAAATATATTA [XGTACX_site2325]	8.52 ± 0.47
ATATACATATAGGATGCACACATAATTCAAATACAA [CACACA_site8120]	9.3 ± 0.42
AACAATAATTTTGAATGTACATATAAATATTTTTAT [XGTACX_site5501]	8.61 ± 0.38
TATAATGGTTCTGGTGTGCACCATGACAGAATCAAG	8.82 ± 0.38
AAAAAAAAGAATAGCACACACACATATATAAATATA [CACACA_site630]	9.73 ± 0.22
GTGAAAGGAAAAGTTGAACACACAAAGTAAACTATA [CACACA_site9178]	9.2 ± 0.58
TCTTATAAAGGTAATTGTACATATTTATAATTTCTT [XGTACX_site4847]	8.54 ± 0.47
AATAATATTTAATACGCACACAATAATAATATAAAA [CACACA_site1763]	9.04 ± 0.46
CACACGCACGAACACACACACATATAAATATAAATA [CACACA_site6299]	9.71 ± 0.44
ATATATTATTATACATGTACATATATAGATATATAT [XGTACX_site4358]	8.9 ± 0.36
AGGTAGAAATTGTTAAAAAATCATACATATTATATA [CACACA_negctrl_site622]	8.5 ± 0.47
TTTAAATACAGACATACACACATACACGCACATATA [CACACA_site6400]	9.49 ± 0.37
TATATTTTTATTGAACGTACAAAAAGTCGAAAACAG [XGTACX_site3967]	8.57 ± 0.39
ATAAATACTAAAAATGAAATATAGAAAATAGCAATA [CACACA_negctrl_site501]	8.77 ± 0.45
GTTAATTCTATGAATTGTACTTAAATATAATTATAT [XGTACX_site2785]	8.48 ± 0.35
ACAGTTAAAACAATAACACACAAAGAAAAAAAAAAA [CACACA_site737]	8.99 ± 0.5
CAAAATAAAAATAACACACACATTTATATAAATACA [CACACA_site4790]	9.32 ± 0.36
